Reference: the supplement of paper PMC4967469
A lower IC50 marks a more sensitive line; fits outside the tested doses are given as limits. AUC sums up the same curve from the lowest dose to the 256-fold higher top dose; the more sensitive the line, the further below 1. For some of these results: The top dose, if marked as inferred, is not printed in the source and was worked back from the curve model.

How the values were obtained:
Experiment in all cases: Viability of human cancer cell lines after 72 h of drug (GDSC screen)
Erlotinib = compound: C#Cc1cccc(Nc2ncnc3cc(OCCOC)c(OCCOC)cc23)c1 [Erlotinib]; details: top dose 2 µM
Experimental: (§1)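 Human cancer cell lines in 384-well plates, medium with 10% serum, drug for 72 h over a 256-fold dose range (nine 2-fold or five 4-fold steps up to the top dose). Adherent lines were fixed and stained with the nucleic acid dye Syto60, suspension lines read with resazurin; signal relative to control wells, capped at 0 and 100%. One two-parameter sigmoid per drug and line, fitted in a mixed model over all curves with the slope shared within a line.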

QL-XI-92 = compound: C=CC(=O)Nc1cc(NC(=O)c2ccc(C)c(NC(=O)c3ccno3)c2)cc(C(F)(F)F)c1 [QL-XI-92]; details: top dose 10.24 µM; top dose inferred
Experimental: as §1

Vinorelbine = compound: CCC1=C[C@@H]2CN(C1)Cc1c([nH]c3ccccc13)[C@@](C(=O)OC)(c1cc3c(cc1OC)N(C)[C@H]1[C@@](O)(C(=O)OC)[C@H](OC(C)=O)[C@]4(CC)C=CCN5CC[C@]31[C@@H]54)C2 [Vinorelbine]; details: top dose 0.064 µM; top dose inferred
Experimental: as §1

AG-014699 = compound: CNCc1ccc(-c2[nH]c3cc(F)cc4c3c2CCNC4=O)cc1 [AG-014699]; details: top dose 5 µM; top dose inferred
Experimental: as §1

XL-184 = compound: COc1cc2nccc(Oc3ccc(NC(=O)C4(C(=O)Nc5ccc(F)cc5)CC4)cc3)c2cc1OC [XL-184]; details: top dose 5.12 µM; top dose inferred
Experimental: as §1

WHI-P97 = compound: COc1cc2ncnc(Nc3cc(Br)c(O)c(Br)c3)c2cc1OC [WHI-P97]; details: top dose 10.24 µM; top dose inferred
Experimental: as §1

Gefitinib = compound: COc1cc2ncnc(Nc3ccc(F)c(Cl)c3)c2cc1OCCCN1CCOCC1 [Gefitinib]; details: top dose 0.5 µM
Experimental: as §1

Phenformin = compound: N=C(N)NC(=N)NCCc1ccccc1 [Phenformin]; details: top dose 4000 µM; top dose inferred
Experimental: as §1

S-Trityl-L-cysteine = compound: N[C@@H](CSC(c1ccccc1)(c1ccccc1)c1ccccc1)C(=O)O [S-Trityl-L-cysteine]; details: top dose 5.12 µM; top dose inferred
Experimental: as §1

EHT 1864 = compound: O=c1cc(CN2CCOCC2)occ1OCCCCCSc1ccnc2cc(C(F)(F)F)ccc12 [EHT 1864]; details: top dose 10 µM; top dose inferred
Experimental: as §1

NU-7441 = compound: O=c1cc(N2CCOCC2)oc2c(-c3cccc4c3sc3ccccc34)cccc12 [NU-7441]; details: top dose 2 µM; top dose inferred
Experimental: as §1

Cell Line	AUC (Erlotinib)	IC50 (Erlotinib) [µM]	AUC (QL-XI-92)	IC50 (QL-XI-92) [µM]	AUC (Vinorelbine)	AUC (AG-014699)	IC50 (AG-014699) [µM]	AUC (XL-184)	IC50 (XL-184) [µM]	AUC (WHI-P97)	IC50 (WHI-P97) [µM]	AUC (Gefitinib)	IC50 (Gefitinib) [µM]	AUC (Phenformin)	IC50 (Phenformin) [µM]	AUC (S-Trityl-L-cysteine)	IC50 (S-Trityl-L-cysteine) [µM]	AUC (EHT 1864)	IC50 (EHT 1864) [µM]	IC50 (Vinorelbine) [µM]	AUC (NU-7441)	IC50 (NU-7441) [µM]
LU-139 (small cell lung carcinoma, suspension)	0.981	> 2	0.922	> 10.2	0.823	0.957	> 5	0.961	> 5.12	0.971	> 10.2	0.891	> 0.5	0.24	35	0.776	2.64	0.918	> 10	–	–	–
MOLP-8 (myeloma, suspension)	0.987	> 2	0.728	2.76	0.568	0.987	> 5	0.882	5.05	0.976	> 10.2	0.977	> 0.5	–	–	0.583	0.536	0.981	> 10	0.00609	0.96	> 2
NTERA-2 cl.D1 (testis, adherent)	0.981	> 2	0.969	> 10.2	0.31	0.846	3.59	0.893	> 5.12	0.977	> 10.2	0.943	> 0.5	0.846	2870	0.901	> 5.12	0.974	> 10	0.00118	–	–
NU-DUL-1 (B-cell lymphoma, suspension)	0.993	> 2	0.839	5.12	0.504	0.985	> 5	0.856	2.9	0.975	> 10.2	0.993	> 0.5	0.42	158	0.603	0.579	–	–	0.00409	0.914	1.93
OCI-AML3 (acute myeloid leukaemia, suspension)	0.991	> 2	0.838	5.55	0.604	0.968	> 5	–	–	0.982	> 10.2	0.989	> 0.5	0.757	1210	0.583	0.522	0.971	> 10	0.00738	0.979	> 2
RH-1 (rhabdomyosarcoma, adherent)	0.991	> 2	0.981	> 10.2	0.64	0.895	4.32	0.849	2.92	0.96	> 10.2	0.945	> 0.5	0.953	> 4000	0.904	4.86	0.913	> 10	0.0091	–	–
SK-N-DZ (neuroblastoma, adherent)	0.98	> 2	0.98	> 10.2	0.959	0.971	> 5	0.921	> 5.12	0.985	> 10.2	0.887	> 0.5	0.864	3420	0.822	2.95	0.925	> 10	> 0.064	–	–
